Where “and” joins values, the source holds several entries; their conditions need not be identical. Equal values may be shown once. In all, about 360,000 compounds went through this assay and about 16,000 (4.4%) were called active. Inconclusive results, whose numbers are uncertain, are shown with a selection of clear calls. Calls follow the shape of the dose curve; as a rule, active = well fitted inhibition curve with a large enough effect; inconclusive = small, poorly fitted or top-dose-only effect; inactive = no such curve, though single readings can be large or run the other way. Where the call is inconclusive, the potency comes from a doubtful curve fit.
What follows are compounds tested against Bromodomain adjacent to zinc finger domain protein 2B (Homo sapiens) (UniProt Q9UIF8) (assay: qHTS Assay for Inhibitors of BAZ2B). Conditions: AlphaScreen BAZ2B-H3K14Ac peptide displacement; activity change, negative = inhibition: at 114 µM (top of the series) unless noted.
UniProt Q9UIF8, sequence (Q9UIF8 whole entry, looked up, the tested form may be a part): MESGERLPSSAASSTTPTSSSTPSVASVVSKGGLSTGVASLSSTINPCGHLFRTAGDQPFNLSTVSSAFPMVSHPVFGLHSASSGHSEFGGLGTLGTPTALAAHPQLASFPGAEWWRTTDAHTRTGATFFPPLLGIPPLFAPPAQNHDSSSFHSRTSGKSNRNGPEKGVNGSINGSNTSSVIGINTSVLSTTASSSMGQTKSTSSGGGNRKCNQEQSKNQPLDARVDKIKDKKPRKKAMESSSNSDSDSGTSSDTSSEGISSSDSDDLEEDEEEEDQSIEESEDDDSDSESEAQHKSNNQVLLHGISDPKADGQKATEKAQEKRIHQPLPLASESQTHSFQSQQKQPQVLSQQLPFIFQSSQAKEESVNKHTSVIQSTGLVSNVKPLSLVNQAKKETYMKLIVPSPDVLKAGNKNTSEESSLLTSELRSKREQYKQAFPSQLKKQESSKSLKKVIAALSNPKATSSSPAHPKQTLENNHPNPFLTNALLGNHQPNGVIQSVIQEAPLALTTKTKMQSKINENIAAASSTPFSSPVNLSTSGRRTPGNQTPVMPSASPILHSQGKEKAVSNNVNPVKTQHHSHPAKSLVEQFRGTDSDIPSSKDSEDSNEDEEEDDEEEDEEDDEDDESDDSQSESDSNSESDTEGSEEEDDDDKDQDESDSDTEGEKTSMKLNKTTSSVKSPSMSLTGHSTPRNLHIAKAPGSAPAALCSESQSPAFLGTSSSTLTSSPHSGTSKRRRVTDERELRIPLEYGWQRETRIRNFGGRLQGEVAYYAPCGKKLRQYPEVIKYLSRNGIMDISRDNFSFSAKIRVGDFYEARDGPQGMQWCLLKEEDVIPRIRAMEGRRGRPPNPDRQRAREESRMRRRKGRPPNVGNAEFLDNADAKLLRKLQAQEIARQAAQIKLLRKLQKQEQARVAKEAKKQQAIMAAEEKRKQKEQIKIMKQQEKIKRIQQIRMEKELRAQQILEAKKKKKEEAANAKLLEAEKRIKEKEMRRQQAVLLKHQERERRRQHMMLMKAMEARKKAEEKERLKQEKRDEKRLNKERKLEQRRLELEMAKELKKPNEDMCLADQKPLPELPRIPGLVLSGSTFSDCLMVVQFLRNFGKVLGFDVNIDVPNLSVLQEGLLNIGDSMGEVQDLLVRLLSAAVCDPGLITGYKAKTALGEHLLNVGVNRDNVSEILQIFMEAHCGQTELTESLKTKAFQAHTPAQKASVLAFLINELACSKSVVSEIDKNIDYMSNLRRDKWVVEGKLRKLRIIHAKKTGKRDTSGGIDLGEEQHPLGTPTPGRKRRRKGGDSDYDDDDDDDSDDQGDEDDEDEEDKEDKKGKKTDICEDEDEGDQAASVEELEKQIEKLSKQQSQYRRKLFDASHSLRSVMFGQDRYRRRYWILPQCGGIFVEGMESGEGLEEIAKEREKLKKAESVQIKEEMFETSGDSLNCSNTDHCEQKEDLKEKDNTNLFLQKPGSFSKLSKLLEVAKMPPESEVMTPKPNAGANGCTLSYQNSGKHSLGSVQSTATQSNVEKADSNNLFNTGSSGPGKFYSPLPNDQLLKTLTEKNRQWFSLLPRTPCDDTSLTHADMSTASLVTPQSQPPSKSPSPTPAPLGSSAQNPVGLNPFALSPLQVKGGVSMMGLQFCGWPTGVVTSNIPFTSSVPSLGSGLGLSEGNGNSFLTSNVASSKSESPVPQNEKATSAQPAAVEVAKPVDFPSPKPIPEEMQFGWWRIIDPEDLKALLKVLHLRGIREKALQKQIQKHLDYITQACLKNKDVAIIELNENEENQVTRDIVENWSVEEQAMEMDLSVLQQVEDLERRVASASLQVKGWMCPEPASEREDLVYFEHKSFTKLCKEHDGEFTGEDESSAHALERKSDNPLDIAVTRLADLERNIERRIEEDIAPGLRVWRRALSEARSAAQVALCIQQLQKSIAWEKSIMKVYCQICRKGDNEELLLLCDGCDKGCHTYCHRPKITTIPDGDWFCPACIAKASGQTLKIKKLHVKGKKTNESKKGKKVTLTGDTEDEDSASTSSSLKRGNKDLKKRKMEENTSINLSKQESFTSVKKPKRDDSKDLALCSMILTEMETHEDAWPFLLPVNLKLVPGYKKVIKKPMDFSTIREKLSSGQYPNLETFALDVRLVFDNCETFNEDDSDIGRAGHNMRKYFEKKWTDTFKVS
In short: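 Complex of BAZ2B and biotin-H3K14Ac (50 nM apiece) forms over 30 min at RT, then faces library compounds up to 110 uM for another 30 min; AlphaScreen beads added, 20 min dark incubation, luminescence read.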
% is scaled to controls: 0 for no effect and ±100 for the full control effect; potency is read from the fitted curve at half-maximal effect; tags tell the direction and shape of the fitted curve.
Also: nearly all actives have a fitted effect of over 60% in size.

Row | Compound | activity change, negative = inhibition | Potency
1 | COc1ccc(C2Nc3ccccc3C(=O)N2O)cc1OC (centres undefined) | inactive: -23.5% | –
2 | C#CCOCCOCCOCCNc1nc(N2CCN(C(=O)C([C@@H](C)CC)n3cc(C(N)CO)nn3)CC2)nc(N2CCN(C(=O)[C@H](CCC(=O)O)n3cc(C(N)Cc4ccc(O)cc4)nn3)CC2)n1 (some centres undefined) | – | active: 39.8 µM
3 | Oc1c(C(c2ccccc2)N2CCC(O)CC2)sc2nc(-c3ccco3)nn12 (centres undefined) | inactive: -33.2% | –
4 | Nc1ccccc1Nc1cc(-c2ccccc2)[nH]n1 | – | active: 39.8 µM
5 | C/C(=N\NC(=O)c1ccncc1)c1cc2ccccc2oc1=O | – | inconclusive: 79.4 µM [inhibitor, single point]
6 | CCOC(=O)C(Sc1cc(-c2ccccc2)nc2ncnn12)C(C)=O (centres undefined) | inactive: -15.5% | –
7 | O=C(COC(=O)CCc1ccc(S(=O)(=O)N2CCOCC2)cc1)NC(=O)NC1CCCCC1 | – | inconclusive: 79.4 µM [inhibitor, single point]
8 | CCn1c2ccccc2c2cc(NC(=O)c3ccc(Br)o3)ccc21 | – | inconclusive: 39.8 µM [inhibitor, full curve]
9 | N#C/C(=C/c1ccc2c(c1)OCO2)C(=O)NCCc1c[nH]c2ccccc12 | – | inconclusive: 31.6 µM [inhibitor, partial curve]
10 | CN1CCN(CCCNC(=O)c2ccc(/C=C3\Sc4ccccc4N(Cc4ccc(F)cc4)C3=O)cc2)CC1 | – | inconclusive: 35.5 µM [inhibitor, partial curve]
11 | O=c1c2ccccc2nnn1CSc1nnc(C2COc3ccccc3O2)n1-c1ccccc1 (centres undefined) | inactive: -33.3% | –
12 | S=C(NN=C1C2CC3CC(C2)CC1C3)Nc1ccccc1 | – | inconclusive: 39.8 µM [inhibitor, full curve, poor fit]
13 | CN(Cc1cc([N+](=O)[O-])c2cccnc2c1O)C1CCCCC1 | – | active: 7.94 µM
14 | COc1ccc(NC(=O)c2sccc2C)cn1 | inactive: -0.373% | –
15 | CCc1ccc(CNC(=O)c2cccc(-n3cnc4cccnc43)c2C)cc1 | inactive: -13.3% | –
16 | Cc1ccc(NC(=O)Nc2c(C)n(C)n(-c3ccccc3)c2=O)cc1 | inactive: -11.4% | –
17 | COc1cc(NC(=O)CSc2cc(C)c3cc(C)cc(C)c3n2)c(C(=O)O)cc1OC | – | inconclusive: 89.1 µM [inhibitor, partial curve]
18 | Cn1ccc2cc(S(=O)(=O)N3CCCN(C(=O)Nc4ccccc4Br)CC3)ccc21 | inactive: -14.4% | –
19 | CCOc1ccc(CCNC(=O)CCCn2nc(C)c3sc4ccccc4c3c2=O)cc1OCC | – | inconclusive: 79.4 µM [inhibitor, partial curve]
20 | O=C(CSc1nccn1-c1ccccc1)Nc1nc2ccccc2s1 | – | inconclusive: 2.82 µM [inhibitor, full curve]
21 | COc1ccc(N2CCN(CCNC(=O)Nc3cc(Cl)ccc3OC)CC2)cc1 | – | inconclusive: 7.94 µM [inhibitor, full curve, poor fit]
22 | COc1cc(-c2noc(-c3ccc(NCc4cccnc4)c([N+](=O)[O-])c3)n2)cc(OC)c1OC | – | inconclusive: 89.1 µM [inhibitor, single point]
23 | CCNc1nc(NCC)nc(N(C)N)n1 | – | active: 25.1 µM
24 | COc1ccc(/C=N/Nc2nncn2N)cc1Br | – | inconclusive: 89.1 µM [inhibitor, single point]
25 | O=C(Nc1ccc2nc3ccccc3nc2c1)c1ccc(Br)cc1 | inactive: -0.702% | –

Row | Compound | activity change, negative = inhibition | Potency
26 | N#Cc1ccc(N2C(=O)[C@@H]3C(C(=O)c4cnccn4)=NN[C@@H]3C2=O)cc1 | – | active: 56.2 µM
27 | O=C(CCl)Nc1nc(-c2ccco2)c(-c2ccco2)s1 | – | active: 50.1 µM
28 | Cc1cc(=O)[nH]c(N/N=C/c2c(F)c(F)c(F)c(F)c2F)n1 | – | inconclusive: 44.7 µM [inhibitor, partial curve]
29 | COC(=O)c1cc(S(=O)(=O)NCc2ccc3c(c2)OCO3)cn1C | inactive: -13.5% | –
30 | C[n+]1cccc(/C=N/NC(=O)CC23CC4CC(CC(C4)C2)C3)c1 | – | inconclusive: 79.4 µM [inhibitor, single point]
31 | Cc1ccc(CN(C(=O)COc2cccc([N+](=O)[O-])c2)c2ccccn2)o1 | – | inconclusive: 56.2 µM [inhibitor, partial curve]
32 | N#CCCN1CCN(C(=S)c2ccc(-c3cc(Cl)ccc3Cl)o2)CC1 | – | inconclusive: 5.01 µM [inhibitor, full curve, poor fit]
33 | COc1ccc(N2CCN(C(CNC(=O)C(=O)NCc3cccs3)c3ccco3)CC2)cc1 (centres undefined) | – | inconclusive: 28.2 µM [inhibitor, single point]
34 | Cc1cccc(Nc2nc(N)nc(CN3CCC(C)CC3)n2)c1C | – | inconclusive: 89.1 µM [inhibitor, single point]
35 | Cc1ccc(C2C(C#N)=C(N)Oc3cc(N)ccc32)cc1 (centres undefined) | – | inconclusive: 89.1 µM [inhibitor, single point]
36 | O=S(=O)(NCc1ccccc1)c1ccc(NC(=S)NCc2ccco2)cc1 | – | inconclusive: 44.7 µM [inhibitor, partial curve]
37 | COc1ccccc1/C=C1\SC(=S)N(N2C(=O)CCCC2=O)C1=O | – | inconclusive: 20 µM [inhibitor, full curve]
38 | O=[N+]([O-])c1cc(O)c2ncccc2c1 | – | active: 5.62 µM
39 | Cc1ccc(C(=O)N(Cc2ccc(N(C)C)cc2)Cc2ccco2)cc1 | – | active: 35.5 µM
40 | O=C(COC(=O)c1ccc[nH]c1=O)c1ccc(Cl)s1 | – | inconclusive: 89.1 µM [inhibitor, single point]
41 | Cc1ccc(OCCSc2ncccn2)c(C)c1 | inactive: 82.8% | –
42 | O=C(Nc1ccc([N+](=O)[O-])cc1)Nc1ccon1 | – | inconclusive: 89.1 µM [inhibitor, single point]
43 | O=C(CSc1nc2ccccc2[nH]1)Nc1ccc(F)c(F)c1 | inactive: 8.53% | –
44 | CC1CCN(Cc2c(O)ccc3c2O/C(=C\c2ccco2)C3=O)CC1 | – | active: 50.1 µM
45 | CC1CCCN(S(=O)(=O)c2ccc(C(=O)Nc3nnc(C4=COCCO4)o3)cc2)C1 (centres undefined) | – | active: 79.4 µM
46 | Nc1nc(NCc2ccco2)nc(N2CCCCC2)c1[N+](=O)[O-] | – | inconclusive: 50.1 µM [inhibitor, partial curve]
47 | C=CCCC(=O)Nc1nc(C)c(-c2csc(Nc3ccc(Cl)cc3Cl)n2)s1 | – | inconclusive: 50.1 µM [inhibitor, partial curve]
48 | O=C(NCCc1ccc(Cl)cc1)c1ccc(CS(=O)Cc2cccc(Cl)c2)o1 (centres undefined) | – | inconclusive: 79.4 µM [inhibitor, single point]
49 | COC(=O)c1n[nH]n(-c2ccccc2)c1=O | inactive: -13% | –
50 | CCOc1ccc(CCNC(=O)c2nn(C)c3c2CS(=O)(=O)c2ccccc2-3)cc1 | – | inconclusive: 79.4 µM [inhibitor, single point]

Row | Compound | activity change, negative = inhibition | Potency
51 | CC1Sc2ccc(S(=O)(=O)N3CCC(C(=O)N(C)Cc4ccco4)CC3)cc2NC1=O (centres undefined) | inactive: -34.7% | –
52 | Cc1ccc(OC(=O)c2ccccc2P(=O)(O)O)cc1 | – | inconclusive: 11.2 µM [inhibitor, single point]
53 | O=C1/C(=C\c2ccco2)CCC/C1=C\c1ccco1 | – | active: 44.7 µM
54 | COc1ccc(OC)c(CN2CCCC(C(=O)c3ccccc3SC)C2)c1 (centres undefined) | – | inconclusive: 22.4 µM [inhibitor, full curve]
55 | O=C(O)C(Cc1ccccc1)N1C(=O)C2CCCCC2C1=O (centres undefined) | – | inconclusive: 100 µM [inhibitor, single point]
56 | Cc1nn(C)c(C)c1S(=O)(=O)N1CCCC(C(=O)N2CCN(c3ccc(Cl)cc3)CC2)C1 (centres undefined) | – | inconclusive: 56.2 µM [inhibitor, partial curve]
57 | COc1ccc(OC)c(N/C(C)=C/C(=O)c2ccc(C)o2)c1 | – | inconclusive: 35.5 µM [inhibitor, partial curve]
58 | CC1CCN(c2ccccc2NC(=S)NC(=O)c2cccs2)CC1 | – | active: 35.5 µM
59 | CC(C)(C)NC(=S)N/N=C/c1cccnc1 | inactive: -4.38% | –
60 | Cc1ccc(OCC(=O)Nc2ccc(C(N)=O)cc2)cc1 | inactive: -1.13% | –
61 | Cc1ccc(NCc2nc3ccccc3n2CCOc2ccccc2)cc1 | – | active: 7.94 µM and active: 22.4 µM
62 | COc1ccc(/C=C/C(=O)NC(=S)N2CCOCC2)cc1 | – | inconclusive: 89.1 µM [inhibitor, single point]
63 | O=C(CSc1cn(CC(=O)N2CCCCC2)c2ccccc12)NCC1CCCO1 (centres undefined) | inactive: -16.3% | –
64 | C[C@@H](O)C(C(=O)N1CCNCC1)n1cc([C@@H](N)CCCCN)nn1 (some centres undefined) | – | inconclusive: 89.1 µM [inhibitor, single point]
65 | CCOc1cc(C2/C(=C(/O)c3ccc(OC(C)C)cc3)C(=O)C(=O)N2CCCOC)ccc1O (centres undefined) | – | inconclusive: 89.1 µM [inhibitor, single point]
66 | COc1ccccc1CNC(=O)COC(=O)C1CCN(c2ccc(C(F)(F)F)cn2)CC1 | inactive: 1.53% | –
67 | O=C(Cn1nnc2ccccc2c1=O)N[C@@H](Cc1c[nH]c2ccccc12)C(=O)O | inactive: -0.606% | –
68 | Cc1ccccc1-c1nc(CS(=O)(=O)CC(=O)NCCCN2CCOCC2)c(C)o1 | – | inconclusive: 1 µM [inhibitor, full curve, poor fit]
69 | Cc1ccsc1/C=N/NC(=S)NCCc1ccccc1 | – | inconclusive: 28.2 µM [inhibitor, full curve]
70 | Cc1cc(O)c(C=Nc2ccc(Cl)cn2)c(=O)o1 | – | inconclusive: 56.2 µM [inhibitor, partial curve]
71 | COc1ccc(NCC(=O)N/N=C/c2ccc3c(c2)OCCO3)cc1 | – | inconclusive: 50.1 µM [inhibitor, partial curve]
72 | COc1ccccc1-c1ccc(/C=C2\C=CC(=O)O2)o1 | – | active: 50.1 µM
73 | CN(C)c1cccc(C(=O)NNC(=O)NC2CCCCC2)c1 | inactive: -4.99% | –
74 | COc1cccc(NC(=O)C2C3C=CC4(O3)C2C(=O)N(CCCN2CCC(C)CC2)C4C(=O)NC2CCCCC2)c1 (centres undefined) | inactive: -1.04% | –

Reference: PubChem BioAssay AID504333 (National Center for Advancing Translational Sciences (NCATS), 2011)
